In all, about 110,000 compounds were measured (“z-score”: median about -0.1, highest 2% from about 2 on). The list shows a part of the results. Calls of active or inactive are those of the source.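 The calls were made as follows: active = z-score in the third read window above 3 or below -3; inactive = the rest.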

The target of the assay is Metabotropic glutamate receptor 8 (Rattus norvegicus) (UniProt P70579). The assay can be described thus: rat mGluR8 modulators via GIRK flux, primary screen, cell-based, thallium flux, HTS (AID 488969). As to conditions: HEK293 rat mGluR8, GIRK (G protein-gated inwardly rectifying potassium channel) thallium flux, FluoZin2; at 10 µM; stronger effect = higher value; submaximal glutamate (EC20) added with thallium.
Sequence of UniProt P70579 (P70579 whole entry, looked up): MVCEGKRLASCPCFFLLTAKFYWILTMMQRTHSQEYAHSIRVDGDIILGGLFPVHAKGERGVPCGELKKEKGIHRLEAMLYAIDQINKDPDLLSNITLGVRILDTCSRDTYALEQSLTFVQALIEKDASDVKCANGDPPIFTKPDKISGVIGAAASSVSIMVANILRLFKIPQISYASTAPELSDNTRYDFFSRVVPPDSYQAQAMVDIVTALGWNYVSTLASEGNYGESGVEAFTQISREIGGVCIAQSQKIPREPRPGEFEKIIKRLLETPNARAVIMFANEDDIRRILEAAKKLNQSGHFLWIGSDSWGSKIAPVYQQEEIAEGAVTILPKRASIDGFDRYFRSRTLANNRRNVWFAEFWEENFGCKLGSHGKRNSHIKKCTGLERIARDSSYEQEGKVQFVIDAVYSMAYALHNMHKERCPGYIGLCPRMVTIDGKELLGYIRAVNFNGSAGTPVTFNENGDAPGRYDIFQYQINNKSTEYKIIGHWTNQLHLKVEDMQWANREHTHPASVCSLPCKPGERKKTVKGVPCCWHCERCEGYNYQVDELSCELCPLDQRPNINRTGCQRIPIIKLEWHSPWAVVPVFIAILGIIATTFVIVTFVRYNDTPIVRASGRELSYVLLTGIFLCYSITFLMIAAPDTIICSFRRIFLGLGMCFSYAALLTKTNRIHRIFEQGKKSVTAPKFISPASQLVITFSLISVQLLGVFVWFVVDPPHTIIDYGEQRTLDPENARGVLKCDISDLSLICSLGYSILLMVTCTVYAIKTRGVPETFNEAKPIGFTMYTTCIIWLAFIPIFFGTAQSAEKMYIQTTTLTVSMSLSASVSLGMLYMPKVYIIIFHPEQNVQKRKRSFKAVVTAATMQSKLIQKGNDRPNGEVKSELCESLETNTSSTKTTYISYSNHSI
For `CC(=O)N(C)c1ccc(OCC(O)COc2ccc(N(C)C(C)=O)cc2)cc1`, the z-score was -0.144.
Take `CCc1ccc(NC(=O)C/C(C)=N/NC(=O)OCc2ccc(OC)cc2)cc1`: the z-score was -0.139.
`CC(NC(=O)C1C(=O)N(CCO)C2(C)CC1c1ccccc1O2)c1ccccc1` (centres undefined): the z-score was -0.22.
For the compound `O=C(CN1C(=O)NC2(CCCCC2)C1=O)Nc1ccc(N2CCOCC2)cc1`, the z-score was 0.0382.
In turn, `COc1ccccc1S(=O)(=O)Cc1ccc(C(=O)NCCN2CCCC2)o1` had a z-score of 0.238.
In the case of `O=C(NCc1ccccn1)c1coc(=O)c(Br)c1`, the z-score was -1.32.
With `Cc1cc(-c2n[nH]c(=S)n2Cc2ccco2)n(C)n1` the figure was -0.171.
As to `Cc1cc(NCCCN(C)C)n2nc(-c3cccs3)cc2n1`, the z-score is -0.0105.
Compound `COc1ccc(C(=O)NCC2OCCc3ccccc32)c(O)c1` (centres undefined) gave a z-score of 0.0231.
The same measure for `CCOc1ccc(C(=O)Nc2c3c(nn2-c2ccc(C)cc2)CS(=O)C3)cc1OCC` (centres undefined): 0.0188.
With `O=C(O)CCC(=O)Nc1cccc(C(=O)Nc2cccc(Cl)c2)c1`, the z-score was -0.326.
Compound `CCCc1[nH]n(-c2ccc(F)cc2)c(=O)c1C=Nc1cccc(F)c1` displayed a z-score of 0.195.
Compound `Cc1ccc(Cl)cc1N1CCN(C(=O)C2CCN(S(=O)(=O)c3cccnc3)CC2)CC1` returned a z-score of 0.308.
Turning to `Cc1ccc(C(=O)C(=S)N2CCOCC2)cc1`, the z-score was -0.209.
`CCCCCCn1c(CN2CCCCC2C)nc2c1c(=O)n(C)c(=O)n2C` (centres undefined): the z-score is -0.304.
Consider `CCOC(=O)C1CCN(C(=O)CCc2c(C)nc3c(-c4ccc(F)cc4)c(C)nn3c2C)CC1`, for which the z-score is -0.801.
The compound `Cc1csc(NC(=O)CSc2nnc3ncccn23)n1` returned a z-score of 0.932.
In the case of `Cc1cccc(N2C(=O)CC(N3CCN(c4cccc(C(F)(F)F)c4)CC3)C2=O)c1` (centres undefined), the z-score was determined as 0.337.
On to `Cc1ccc(S(=O)(=O)N2CCOCC2)cc1NC(=O)COC(=O)c1ccc(OCc2c(C)noc2C)cc1`, for which the z-score was -0.346.
For `O=C(C1CCCN1S(=O)(=O)c1cccc2cccnc12)N1CCc2ccccc2C1` (centres undefined), the z-score was -0.115.
On to `CN(C)S(=O)(=O)c1ccc(Nc2nc(C3CC3)nc3c2nnn3Cc2ccccc2Cl)cc1`, for which the z-score was -0.0504.
As to `Cc1ccc(Cl)cc1N1CCN(C(c2ccc(C#N)cc2)c2nnnn2C2CCCC2)CC1` (centres undefined), the z-score was -0.969.
Turning to `CC(C)CC(=O)N1CCC(O)(CS(=O)(=O)Cc2ccc(Cl)cc2)CC1`, the z-score was determined as 0.234.
As to `COc1cc(C2N(c3cccc(Cl)c3)C(=O)C3CCCN32)cc(OC)c1OC` (centres undefined), the z-score was -0.543.
With `CCOC(=O)c1c(NC(=O)CSc2nnc(-c3cccc(C)c3)n2CC)sc(C(C)=O)c1C` the figure was -0.735; with `Nc1ccc(/C=C/C(=O)c2ccco2)cc1`, 0.559.
As to `CC(C)(C)C(=O)Cn1c(NCCO)nc2ccccc21`, the z-score was -0.265.
Compound `O=C(N/N=C/c1ccccn1)c1ccc(Br)cc1` yielded a z-score of 1.82.
`CCOC(=O)c1c(NC(=O)CC)sc(C(=O)N2CCCCC2)c1C`: the z-score was -0.285.
For the compound `CCc1cc2c(=O)n(N)c(CCC(=O)O)nc2s1`, the z-score is -0.0861.
With `Cc1occc1-c1nnc(SCC(=O)N2CCN(c3ccc(F)cc3)CC2)n1C`, the z-score is 0.0114.
As for `Cc1oc(C(=O)O)cc1CSCc1ccoc1C(=O)O`, the z-score was -0.104.
For `COC(=O)CC(=O)CSc1nc2c(cc1C#N)CCC2`, the z-score is -0.106.
Take `CCN(CC(=O)NC(C)C)C(=O)CCNC(=O)c1ccc(Cl)cc1`: the z-score is -0.244.
`Cc1ccc(N(C(=O)c2nsc(Cl)c2Cl)C(C(=O)NC2CCCC2)c2ccc(O)cc2)cc1C` (centres undefined): the z-score is -0.249.
For the compound `COc1ccc(/C=C2/SC(=O)N(CC(=O)Nc3cc(C)on3)C2=O)cc1OC`, the z-score was -0.00401.
For `CCCCOC(=O)c1ccc(NC(=O)C(=O)NCC2CCCO2)cc1` (centres undefined), the z-score is -0.0254.
The same measure for `CCC1Oc2ccc(C)cc2N(CC(=O)NCC2COc3ccccc3O2)C1=O` (centres undefined): -0.0996; for `CCCOc1ccc(/C=C/C(=O)Nc2ccc([N+](=O)[O-])cc2C)cc1`: -0.157.
For the compound `COc1ccc(Cn2c(CCC(=O)Nc3ccc(C)c(C)c3)nc3cccnc32)cc1`, the z-score was -0.0657.
The same measure for `CC(=O)Nc1ccc(NC(=O)c2ccccc2Sc2ccc([N+](=O)[O-])cc2Cl)cc1`: -0.764; for `CCc1cccc(C)c1NC(=S)NCc1cccn1C`: -0.189; for `O=C(NC1CCCC1)C(c1ccccc1)N(Cc1ccc2c(c1)OCO2)C(=O)Cc1cccs1` (centres undefined): -0.25.
For the compound `COc1ccc(C2/C(=C(/O)c3ccccc3)C(=O)C(=O)N2c2ccccn2)c(OC)c1` (centres undefined), the z-score was -0.664.
With `COC(=O)c1cc(OC)c(OC)cc1NC(=O)Nc1ccc(OC)cc1OC`, the z-score is active: 3.48.
With `O=C(Oc1ccc(Cl)c2cccnc12)c1ccco1` the figure was 0.951; with `CCc1ccc(NC(=O)C2CCCCC2C(=O)O)cc1` (centres undefined), 0.156.
As for `Cc1ccc(CNC(=O)C2C3C=CC(C3)C2C(=O)O)cc1` (centres undefined), the z-score is -0.366.
With `O=C(Nc1ccccc1)c1ccccc1O`, the z-score was -0.321.
Regarding `COc1cc(NC(=S)NCCc2c[nH]c3ccccc23)c(OC)cc1Cl`, the z-score was -0.146.
Turning to `CCCCOC(=O)n1c(=S)oc2cc(Cl)ccc21`, the z-score was -0.00789.
Consider `Cc1cc(C)cc(C(=O)NCC(=O)OCc2cc([N+](=O)[O-])cc3c2OCOC3)c1`, for which the z-score was -0.324.
As for `COC(=O)c1ccc(NC(=O)c2ccccc2N(C)S(=O)(=O)c2ccccc2)cc1`, the z-score was -0.256.
Regarding `C=CCn1c(SCC(=O)c2cccs2)nc2sc(C)cc2c1=O`, the z-score was -0.445.
With `Clc1ccc(SCc2nc3ccccc3[nH]2)cc1` the figure was -0.0715.
As to `Cn1ncc(Br)c1C(=O)Nc1c(F)c(F)cc(F)c1F`, the z-score was -0.0493.
The same measure for `CN(N)c1nc(-c2ccccc2)nnc1C(F)(F)F`: -0.198.
The same measure for `O=C(COC(=O)C1CCC(=O)N1)Nc1ccc(Cl)cc1Cl` (centres undefined): 0.123; for `CC(=O)N/C(=C/c1ccc2c(c1)OCO2)C(=O)NCCCO`: 0.178.
The same measure for `CCOC(=O)c1nnn(-c2nonc2N)c1-c1ccc(OC)cc1`: -0.5; for `Cc1occc1-c1nnc(SCC(=O)c2ccc(F)cc2)n1Cc1ccco1`: -0.301.
`COc1ccc(OC)c(C(=O)COC(=O)C2CC3CCCC(C2)C3=O)c1` (centres undefined) returned a z-score of 1.3.
As to `Cc1ccc(CSc2nnc(-c3ccccc3N)c(=O)[nH]2)cc1`, the z-score came out at 0.394.
The same measure for `Cc1ccc(-c2nn(CCC(=O)O)cc2CCC(=O)O)cc1`: -0.00395.
For the compound `Cc1ccc2c(c1)nnn2C1CCN(C(=O)C23CC4CC(CC(C4)C2)C3)CC1`, the z-score worked out at 0.295.
The compound `COc1ccc2c(=O)c(-c3nc(C)cs3)coc2c1` showed a z-score of 0.0604.
Regarding `COC(=O)C1=C(C)N(c2ccc(Cl)cc2)/C(=C/c2cccs2)C1=O`, the z-score came to 0.492.
For the compound `CCOCCc1nnc(NC(=O)c2cc(OC)c(OC)c(OC)c2)s1`, the z-score is -0.0593.
Consider `Cc1onc(-c2c(Cl)cccc2Cl)c1C(=O)N/N=C(\N)COc1ccc(Cl)cc1`, for which the z-score came out at 0.0141.

(Values after PubChem BioAssay AID488969 (Vanderbilt High Throughput Screening Facility, 2010).)
